Each structure is given as a SMILES string.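 Method: 48-hour compound exposure of cells in 96-well plates, five concentrations, linear interpolation of endpoints. GI50: concentration for 50% inhibition of growth.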 The source made the active and inactive calls. Cut-off read from the data, not from the text of the source: active = GI50 up to about 1.1 µM and inactive = higher. Bounds are passed on as bounds.

The assay has as its system NCI-H322M. The assay is described as follows: NCI tumour cell line growth inhibition, 48 h.
For `O=C(O)c1cc(-c2ccc3c(O)ccc(O)c3c2)ccc1O`, the GI50 was inactive: 35.5 µM.
The same measure for `Cc1occc1C(=S)Nc1ccc(Cl)c(C(=O)OC(C)C2CC2)c1` (centres undefined): inactive: 31.7 µM; for `C[N+](C)(C)CCN[N+]1(C)CCCc2ccccc21` (centres undefined): inactive: > 100 µM.
The same measure for `CCN(CC)CCCC(C)Nc1ccnc2cc3ccccc3cc12` (centres undefined): inactive: 2.65 µM; for `N/C(S)=N/N=C/c1ccc(N)cn1`: inactive: 4.29 µM; for `Oc1nc2ccccc2c(O)c1Cc1ccccc1`: inactive: > 100 µM.
The value for `Cc1ccc(CCCC(=O)O)cc1C` was inactive: > 100 µM.
As for `COc1cc(N(C)C)c(OC)cc1C=C1C=CC=C1`, the GI50 was inactive: > 100 µM.
Turning to `CC(=O)N1c2ccccc2C23CCN4CC5=CCOC(O)C(C5CC42)C13` (centres undefined), the GI50 was inactive: > 100 µM.
The same measure for `Cc1cn(CC2=NCC(O)CN2)c(=O)[nH]c1=O` (centres undefined): inactive: > 100 µM; for `CC1=C(O)C(=O)C2=C(C1=O)[C@@H]([C@@H](C)C/C=C/C(C)(C)O)CC[C@@H]2C`: inactive: 27.3 µM.
As for `COCOc1c(C(OCOC)c2cnc(Sc3ccccc3)n2C)ccc(OC)c1OC` (centres undefined), the GI50 was inactive: > 100 µM.
Take `O=C(CNc1ccc(Cl)cc1Cl)Nn1c(-c2ccccc2)nc2ccccc2c1=O`: the GI50 was inactive: 15.7 µM.
As to `CCOC(=O)c1nn2c(nc1=O)sc1ccc3ccccc3c12`, the GI50 was inactive: > 100 µM.
In the case of `CCOC(=O)c1cc(C2(O)CCN(Cc3ccccc3)C2=O)c(-c2cc(C)no2)[nH]1` (centres undefined), the GI50 was inactive: > 100 µM.
For `O=C1C=C2CC[C@H]3[C@@H]4CC[C@H](OC(=O)c5cccc6cc7ccccc7nc56)[C@H]4CC[C@@H]3[C@H]2CC1`, the GI50 is inactive: > 100 µM.
As to `CC(=O)NC1C(OCc2ccccc2)OC(CO)C(O)C1OCC(=O)NC(C)C(=O)NC(CCC(=O)NCCCCNc1ccc([N+](=O)[O-])c2[nH]c3ccccc3c(=O)c12)C(N)=O` (centres undefined), the GI50 is inactive: 61.2 µM.
The value for `COc1ncc(C=C(C#N)C#N)c(OC)n1` was inactive: > 100 µM; that for `CC[C@@]1(O)C(=O)OCc2c1cc1n(c2=O)Cc2c-1nc1ccccc1c2/C=N\NC(=O)C[n+]1ccccc1` was inactive: 5.52 µM.
The same measure for `c1cc(-c2csc(-c3ccsc3)c2)cs1`: inactive: > 100 µM; for `O=C(CN1CCN(c2ccccc2)CC1)c1ccc2[nH]c(=O)oc2c1`: inactive: > 100 µM; for `O=C1NC(=O)C2C(=O)NC(=O)C1C2c1c(Cl)cccc1Cl` (centres undefined): inactive: > 100 µM.
The value for `COc1cc2c(cc1OC)C1Cc3ccccc3CN1CCC2` (centres undefined) was inactive: > 100 µM.
As to `c1ccc(COC[C@H]2C3OCC([C@H](OCc4ccccc4)[C@H]3OCc3ccccc3)N2Cc2ccccc2)cc1` (some centres undefined), the GI50 was inactive: > 50.8 µM.
Regarding `CCc1n[nH]c(=O)n1CCCCCCCCn1c(CC)n[nH]c1=O`, the GI50 is inactive: > 100 µM.
Turning to `O=c1oc2ccc([N+](=O)[O-])cc2cc1Br`, the GI50 is inactive: > 100 µM.
As for `CN1C(=O)C(Cl)(C(Cl)(Cl)S(=O)(=O)O)C(=O)c2ccccc21.c1ccncc1` (centres undefined), the GI50 was inactive: > 100 µM.
The same measure for `CN1/C(=C/C(=O)c2ccc(Cl)cc2)Nc2ccccc21`: inactive: 78.3 µM; for `CC(=O)O[C@@]12[C@@H]3O[C@@]4(O)C[C@]5(C)[C@H]6C[C@@](C(C)C)(O[C@H]5c5ccoc5)O[C@H]1[C@]6(C4)O[C@]2(O)C(C)=CC3(C)C`: inactive: > 100 µM.
The same measure for `O=C1NC(N2CCOCC2)=N/C1=C\c1ccco1`: inactive: > 100 µM.
For `O=C(NCCCCCCCCCCCCNC(=O)c1cccc2ccccc12)c1cccc2ccccc12`, the GI50 was inactive: > 100 µM.
The same measure for `O=[N+]([O-])c1cccc2nc3ccccc3c(NCCCNc3c4ccccc4nc4cccc([N+](=O)[O-])c34)c12`: active: < 0.0214 µM; for `COC(=O)[C@H]1[C@@H](C(C)C)O[C@@H](C(C)C)O[C@H]1C(F)(F)F`: inactive: > 100 µM.
The same measure for `Cc1c2c(OCCCCN3CCN(c4ncccn4)CC3)nn(C)c(=O)c2c(C)n1-c1ccccc1`: inactive: 19.4 µM.
The value for `CCOC(=O)/C(=C/c1cc(OC)ccc1OC)CC(=O)O` was inactive: > 100 µM; that for `O=C(Cn1cc(-c2ccccc2)nn1)NC1CCCCC1` was inactive: > 100 µM.
Regarding `CC(C)CC(C#CCCOC(=O)c1ccccc1)OC(=O)c1ccccc1` (centres undefined), the GI50 is inactive: > 10 µM.
In the case of `CCC(=O)C(C)C1=Nc2nnc(CCCCCCCc3nnc4n3C(=O)C(C(C)C(=O)CC)=N4)n2C1=O` (centres undefined), the GI50 is inactive: > 100 µM.
Turning to `CS(=O)(=O)CCC1CCC(=O)O1` (centres undefined), the GI50 is inactive: > 100 µM.
The same measure for `NCCCC(N)C(=O)O` (centres undefined): inactive: > 100 µM; for `O=[N+]([O-])c1ccc2c(c1)/C(=N/N=C1c3ccccc3Cc3ccccc31)c1cc([N+](=O)[O-])cc([N+](=O)[O-])c1-2`: inactive: 2.56 µM.
`CCOC(=O)CNc1nc(=O)c2c(=O)oc(Cl)cc2o1`: the GI50 was inactive: 27 µM.
`Cc1cc(O)nc(CNC(=O)Cc2ccccc2)n1`: the GI50 is inactive: > 100 µM.
The same measure for `C/C(=N/NC(N)=S)C(CN(C)C)C(C1=C(O)c2ccccc2OC1)c1ccccc1` (centres undefined): inactive: > 100 µM.
For the compound `O=C(CCc1n[nH]c(=S)o1)Nc1cc(Cl)ccc1Cl`, the GI50 is inactive: > 100 µM.
The value for `O=[N+]([O-])c1ccc(-c2nn3c(C45CC6CC(CC(C6)C4)C5)nnc3s2)c(Cl)c1` was inactive: > 100 µM; that for `c1cc2ccc3cc4ncccc4c4ccc(c1)c2c34` was inactive: 12.4 µM.
The value for `c1cc(N(CCn2cccn2)CCn2cccn2)cc(N(CCn2cccn2)CCn2cccn2)c1` was inactive: > 100 µM; that for `C(=C/c1ccc2nc(-c3ccc(/C=C/C=N/NC4=NCCCN4)cc3)cn2c1)/C=N/NC1=NCCCN1` was inactive: 15 µM.
Turning to `CC(CN(C)C)C(=O)/C=C/c1ccc(Cl)c(Cl)c1` (centres undefined), the GI50 is inactive: 3.12 µM.
The value for `CN1C2(c3ccccc3)c3c(-c4ccccc4)sc(-c4ccccc4)c3C1(c1ccccc1)C1C(=O)N(c3ccccc3)C(=O)C12` (centres undefined) was inactive: > 100 µM.
As for `Cc1cc2c(C(C)C)c(O)c(O)c(/C=N\CCO)c2c(O)c1-c1c(C)cc2c(C(C)C)c(O)c(O)c(/C=N/CCO)c2c1O`, the GI50 is inactive: 3.05 µM.
For `COC(=O)C(=O)C(C#N)c1nc2ccccc2s1` (centres undefined), the GI50 was inactive: > 100 µM.
Regarding `CN(N=O)C(=O)N(N)CCCCC(NC(=O)OCc1ccccc1)C(=O)OCc1ccccc1` (centres undefined), the GI50 was inactive: > 100 µM.
The value for `Cc1ccc(/C=C2\CCCC(CN(C)C)C2=O)cc1` (centres undefined) was inactive: 15.1 µM; that for `O=c1c2ccccc2c2nc3ccccc3nc2n1C1CCCCC1` was inactive: > 100 µM.
As to `CCCSS[C@H]1NC(=O)[C@H]1NC(=O)COc1ccccc1`, the GI50 is inactive: > 100 µM.
The same measure for `O=C1O/C(=C(/Br)c2ccc(Cl)c(Cl)c2)c2ccccc21`: inactive: > 10 µM; for `Cc1csc(-n2nc(C)cc2C)n1`: inactive: > 100 µM.
The same measure for `O=C(Nc1ccc(Cl)cc1Cl)c1cc2nc3ccccc3c(=O)n2c2ccccc12`: inactive: > 10 µM; for `COC(=O)/C=C/c1ccccc1N=[S@](C)(=O)c1ccc(C)cc1`: inactive: 36.2 µM.
The value for `CC1OC(=O)c2ccccc2NC1=O` (centres undefined) was inactive: > 100 µM; that for `NC1=NCC(CN2CCCC2)O1` (centres undefined) was inactive: > 100 µM; that for `CCCCON1C[C@@H](O)C(O)[C@@H](O)C1` (some centres undefined) was inactive: > 100 µM.
For `N#CCCN(C(=O)Nc1ccc(NC(=O)N(CCC#N)c2ccccc2)cc1)c1ccccc1`, the GI50 was inactive: > 100 µM.
The same measure for `O=C1CC(c2n[nH]c3ccccc23)C(=O)N1c1ccccc1` (centres undefined): inactive: > 100 µM; for `COC(=O)C1=COC(C)C2C[n+]3ccc4c([nH]c5ccccc54)c3CC12` (centres undefined): inactive: > 100 µM; for `CC1(C)C2CCC(CN)(C2)C1N` (centres undefined): inactive: > 100 µM.
As to `O=C(Nc1ccc(N2C(=O)CSC2c2ccccc2O)cc1)c1ccc(N2C(=O)CSC2c2ccccc2O)cc1` (centres undefined), the GI50 was inactive: 83.4 µM.
The value for `Nc1ccccc1C(=O)CC1OC(=O)c2ccccc21` (centres undefined) was inactive: 41.1 µM; that for `O=S(=O)(/N=c1\[nH]c(-c2cc(O)c(O)c(O)c2)cs1)c1ccc(Cl)cc1Cl` was active: 0.491 µM.
On to `Cn1c2ccc3cc2c(=S)c2cc(ccc21)OCCOCCOCCOCCOCCO3`, for which the GI50 was inactive: > 10 µM.
In the case of `O=c1c2ccc(Cl)cc2oc2c(CNc3ccc(S(=O)(=O)Nc4nccs4)cc3)cccc12`, the GI50 is inactive: > 100 µM.
The same measure for `Cc1nc(O)nc2nc3ccc(Cl)cc3c(N(CCO)CCO)c12`: inactive: > 100 µM.
As for `O=C(CCc1cc(O)ccc1O)OCCc1ccccc1`, the GI50 is inactive: > 100 µM.
The same measure for `CN(C)/C=N\c1cc[nH]c(=O)n1`: inactive: > 100 µM; for `N#C[BH2-][n+]1cn(C2CC(O)C(COP(=O)(O)OC3CC(n4cnc5c(=O)[nH]c(N)nc54)OC3CO)O2)c2nc(N)[nH]c(=O)c21` (centres undefined): inactive: > 100 µM.
Regarding `CC12CCC(=O)C[C@H]1CCC(OC=O)C2Br` (some centres undefined), the GI50 is inactive: > 100 µM.
As for `CCOc1ccc2[nH]c3c(C)c4ccncc4c(C)c3c2c1`, the GI50 was inactive: 1.17 µM.
With `CCN(CC)CCOC(=O)/C(=C/c1ccc(OC)cc1)c1cc(OC)c(OC)c(OC)c1`, the GI50 was inactive: 9.06 µM.
The value for `CCC1c2[nH]c3ccccc3c2C[C@H]2C(=O)NC(Cc3ccccc3)C(=O)N12` (some centres undefined) was inactive: 36.2 µM; that for `COc1cccc(/C=C2\CCCc3ccccc3C2=O)c1` was inactive: 19.2 µM; that for `CC(=O)Nc1ccc2c(c1)C(=O)c1ccccc1-2` was inactive: > 100 µM.
The same measure for `NS(=O)(=O)c1ccc(NS(=O)(=O)c2ccc(NC(=O)N(c3ccccc3)c3ccccc3)cc2)cc1`: inactive: > 100 µM.

Values taken from ChEMBL document CHEMBL1201862, “PubChem BioAssay data set” (2004).
